PubChem BioAssay AID360 (National Center for Advancing Translational Sciences (NCATS), 2006)
Hit rate of the full screen: of about 48,000 compounds, about 550 (1.1%) were called active. Another 4% or so got no clear call; they are omitted. Cut-off read from the data, not from the text of the source: active = potency below about 15 µM; inconclusive = mostly about 16 µM to 33 µM; inactive = weaker than that. The list shows a part of the results.

The molecules below were run against Lysosomal acid glucosylceramidase (Homo sapiens) (UniProt P04062) (assay: Glucocerebrosidase). Conditions: purified enzyme, resorufin glucoside fluorescence (screen aimed at inhibitors), 20 min.
Summary of the method: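 Normal human glucocerebrosidase (0.2 nM final) was assayed with resorufin β-D-glucopyranoside (30 uM final) in 50mM citric acid/KH2PO4, 10mM sodium taurocholate, 0.01% tween-20, pH 5.9. Compounds were titrated; fluorescence (Ex 548, Em 600) read after 20 min at RT.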
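Note: the screen sought inhibitors.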
Potency is the fitted concentration of half-maximal effect.

UniProt P04062, sequence (P04062 whole entry, looked up): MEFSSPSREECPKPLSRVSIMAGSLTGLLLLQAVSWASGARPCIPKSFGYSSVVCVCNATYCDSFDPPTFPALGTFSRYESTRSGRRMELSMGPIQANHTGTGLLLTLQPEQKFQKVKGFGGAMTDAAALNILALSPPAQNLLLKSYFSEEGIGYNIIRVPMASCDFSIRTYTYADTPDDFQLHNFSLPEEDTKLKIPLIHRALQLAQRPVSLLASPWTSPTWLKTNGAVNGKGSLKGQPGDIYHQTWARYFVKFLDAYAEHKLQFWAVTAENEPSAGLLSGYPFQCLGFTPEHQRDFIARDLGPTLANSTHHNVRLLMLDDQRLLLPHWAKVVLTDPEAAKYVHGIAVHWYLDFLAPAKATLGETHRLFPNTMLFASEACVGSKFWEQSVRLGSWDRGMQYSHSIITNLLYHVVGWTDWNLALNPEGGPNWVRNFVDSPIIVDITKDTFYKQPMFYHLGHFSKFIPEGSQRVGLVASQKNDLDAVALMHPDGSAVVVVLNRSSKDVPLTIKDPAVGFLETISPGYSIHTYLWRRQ

| SMILES | Potency |
| --- | --- |
| COc1ccc(-c2ccc(-c3nnn(CC(C)=O)n3)cc2)cc1 | inactive: > 76.9 µM |
| CN1CCN(C(=O)c2ccc(N(Cc3ccccc3Cl)S(C)(=O)=O)cc2)CC1 | inactive: > 76.9 µM |
| Cc1nn(C(=O)N2CCCCC2)c(C)c1CN1C(=O)c2ccccc2C1=O | inactive: > 76.9 µM |
| CC1(C)CC(=O)C(Sc2nnc(-c3ccc(O)cc3)n2CC2CCCO2)C(=O)C1 (stereo unspecified) | inactive: > 76.9 µM |
| COc1ccc(CNC(=O)C2CSCCS2)cc1 (stereo unspecified) | inactive: > 76.9 µM |
| O=C(NCc1cccs1)C1CCN(S(=O)(=O)c2cccc3nsnc23)CC1 | inactive: > 76.9 µM |
| Cc1ccc(S(=O)(=O)CCc2ccccn2)cc1 | inactive: > 76.9 µM |
| COc1cc2c(cc1OC)CN(C(=O)NS(=O)(=O)c1ccc(C)cc1)CC2 | inactive: > 76.9 µM |
| COc1ccc(Cc2nc3ccc(S(N)(=O)=O)cc3[nH]2)cc1OC | inactive: > 76.9 µM |
| COC(=O)c1ccc(CSc2ccccc2C)o1 | inactive: > 76.9 µM |
| C=C(C)Cn1c(Sc2nc3ccccc3[nH]2)nc2c1c(=O)[nH]c(=O)n2C | inactive: > 76.9 µM |
| COc1ccccc1S(=O)Cc1ccc(C(=O)O)o1 (stereo unspecified) | inactive: > 76.9 µM |
| CCC(=O)N(Cc1ccc(S(N)(=O)=O)cc1)C1CC(=O)N(c2ccc(OC)cc2)C1=O (stereo unspecified) | inactive: > 76.9 µM |
| Cc1ccc(S(=O)(=O)N2CCN(C(=O)c3ccc(OCc4c(C)noc4C)cc3)CC2)cc1 | inactive: > 76.9 µM |
| CC(=O)C1=C(C)NC(=O)NC1c1ccccc1 (stereo unspecified) | inactive: > 76.9 µM |
| Cc1ccc(-c2cc(-c3nnc(SCC(=O)N(C)CCC#N)n3N)c3ccccc3n2)cc1 | inactive: > 76.9 µM |
| CCOc1ccc2nc(NCCNC(=O)Nc3ccccc3)c(C#N)cc2c1 | inactive: > 76.9 µM |
| Cc1noc(C)c1S(=O)(=O)N(CCc1ccccc1)Cc1ccccc1 | inactive: > 76.9 µM |
| O=C(CSc1nnc(-c2c[nH]c3ccccc23)o1)N1c2ccccc2CCc2ccccc21 | inactive |
| CC(=O)c1cccc(NS(=O)(=O)c2ccc3c(c2)oc(=O)n3C)c1 | inactive: > 76.9 µM |
| CC1=C(C#N)c2nc(N)c(C#N)c(C)c2/C1=C\c1ccccc1 | inactive |
| O=C(O)C(Cc1cc2ccccc2[nH]1)N1C(=O)C2CC=C(Cl)CC2C1=O (stereo unspecified) | inactive: > 76.9 µM |
| C=CCn1c(C)cc(C(=O)COC(=O)COc2ccccc2C#N)c1C | inactive |

| SMILES | Potency |
| --- | --- |
| CC1(C)CC(=O)C2=C(C1)N(Cc1cccnc1)C(=O)C2(NC(=O)C1CC1)C(F)(F)F (stereo unspecified) | inactive: > 76.9 µM |
| O=C1CC(c2ccc(F)c(Br)c2)C2=C(CCCC2=O)N1 (stereo unspecified) | inactive: > 76.9 µM |
| O=C(O)CCSCc1ccccc1F | inactive: > 76.9 µM |
| CC(=O)C1C(=O)CC(C)(O)C(C(C)=O)C1c1ccc(N(C)C)cc1 (stereo unspecified) | inactive: > 76.9 µM |
| CC(C)c1ccc(N2C(=O)[C@@H]3Cc4ccccc4CN3C2=O)cc1 | inactive: > 76.9 µM |
| Cc1ccc2c(c1)N(CC(=O)NC1CCC(C)CC1)C(=O)CO2 (stereo unspecified) | inactive: > 76.9 µM |
| O=C(CCn1c(=O)[nH]c2ccsc2c1=O)N1CC(=O)N(CCc2ccccc2)C(=O)C1 | inactive: > 76.9 µM |
| COc1cccc(-c2cc(C(=O)Nc3cc(OC)c(OC)c(OC)c3)no2)c1 | inactive: > 76.9 µM |
| NS(=O)(=O)c1ccc(NC(=O)CCc2ccccc2)cc1 | inactive: > 76.9 µM |
| CCNC(=O)NC(=O)C(C)SCc1ccccc1C (stereo unspecified) | inactive: > 76.9 µM |
| CC(NC(=O)c1cc(-c2ccccc2)on1)c1ccccc1 (stereo unspecified) | inactive: > 76.9 µM |
| COc1ccccc1N1CCN(C(=O)c2ccoc2C)CC1 | inactive: > 76.9 µM |
| CCn1cc(C(=O)N2CCN(C(=O)c3ccco3)CC2)c2cc(OC)c(OC)cc2c1=O | inactive: > 76.9 µM |
| Cn1c(=O)c2c(nc(CN3CCC(C(N)=O)CC3)n2CCc2ccccc2)n(C)c1=O | inactive: > 76.9 µM |
| CCOc1cc(-c2conc2N)cc(OCC)c1OCC | inactive: > 76.9 µM |
| COc1cccc(N2CCN(Cc3nc(N)nc(N4CCCc5ccccc54)n3)CC2)c1 | active: 10.9 µM |
| CCOC(=O)c1c(C)[nH]c(C(=O)Cn2nnc(-c3ccccc3Cl)n2)c1C | inactive: > 76.9 µM |
| COCCCN(C(C)=O)c1nc(-c2ccc(OC)cc2)cs1 | inactive: > 76.9 µM |
| CCCC1CC(C)(C(=O)Cn2[nH]c(=O)ccc2=O)OC1=O (stereo unspecified) | inactive: > 76.9 µM |
| CC(C)Nc1nc(NC(C)C)nc(N(C)C(N)=O)n1 | inactive: > 76.9 µM |
| COC(=O)c1ccccc1NC(=O)c1sc(N)nc1C | inactive: > 76.9 µM |
| COc1cccc(-c2nnc(SCC(=O)N3CCCc4ccccc43)o2)c1 | inactive: > 76.9 µM |
| O=C(CNC(=O)c1cnccn1)Nc1ccc(F)c(F)c1F | inactive: > 76.9 µM |

| SMILES | Potency |
| --- | --- |
| CCN1CCN(Cc2ccc(NC(=O)Nc3ccc(SC)cc3)cc2)CC1 | inactive: > 76.9 µM |
| Cc1ccsc1C1C(C(=O)O)c2ccccc2C(=O)N1C (stereo unspecified) | inactive: > 76.9 µM |
| CN(CC(=O)N1CCN(c2ccc(F)cc2)CC1)S(=O)(=O)c1ccc(F)cc1 | inactive: > 76.9 µM |
| Cn1c(=O)c2c(nc(SCc3nn[nH]n3)n2Cc2ccccc2F)n(C)c1=O | inactive: > 76.9 µM |
| CCCc1nnc(SCc2ccc(OC)cc2)n1N | inactive: > 76.9 µM |
| O=S(=O)(NCC(c1cccnc1)N1CCOCC1)c1cccs1 (stereo unspecified) | inactive: > 76.9 µM |
| CCOC(=O)C(CC(C)C)CP(=O)(O)CNC(=O)OCc1ccccc1 (stereo unspecified) | inactive: > 76.9 µM |
| O=C1CCC/C1=c1\s/c(=C\c2cccnc2)c(=O)n1-c1ccccc1 | inactive: > 76.9 µM |
| COc1ccc(-c2cc3ccccc3oc2=O)cc1NC(=O)c1ccc(Br)o1 | inactive: > 76.9 µM |
| c1ccn2cc(CSc3nnc4ccccn34)nc2c1 | inactive: > 76.9 µM |
| CCOc1ccc(C(C)=O)cc1CN1C(=O)NC2(CCCCC2C)C1=O (stereo unspecified) | inactive: > 76.9 µM |
| Cc1cc(=O)c2c(O)c(O)ccc2o1 | inactive: > 76.9 µM |
| CN(CCCNC(=O)c1ccc(N2CCCC2=O)cc1)c1ccccc1 | inactive: > 76.9 µM |
| CCOCCn1c(CN2CCN(c3ccccc3)CC2)nc2c1c(=O)n(C)c(=O)n2C | inactive: > 76.9 µM |
| CN(C(=O)c1ccc2c(=O)n3c(nc2c1)CCCCC3)c1ccccc1 | inactive: > 76.9 µM |
| COCCCn1c(-c2ccccc2Cl)n[nH]c1=S | inactive: > 76.9 µM |
| Cc1ccc(C(=O)Nc2ccc(Cl)cn2)cc1 | inactive: > 76.9 µM |
| c1ccc(-c2nnnn2CCOCCn2nnnc2-c2ccccc2)cc1 | inactive: > 76.9 µM |
| CCCN1C2CCCC1CC(NC(=O)NC1CCCCC1)C2 (stereo unspecified) | inactive: > 76.9 µM |
| NCC12CC3CC(C1)CC(CN)(C3)C2 | inactive: > 76.9 µM |
| CC1CCCN(C(=O)c2ccncc2)C1 (stereo unspecified) | inactive: > 76.9 µM |
| CCOC(=O)N1CCN(C(=O)c2cc(C)c3c(C)nn(-c4ccccc4)c3n2)CC1 | inactive: > 76.9 µM |
| COc1ccc(CCNC(=O)CN(c2ccc(C)cc2)S(=O)(=O)c2c(C)noc2C)cc1OC | inactive: > 76.9 µM |

| SMILES | Potency |
| --- | --- |
| Cc1cccc2nc(CSc3nncn3-c3ccccc3)cn12 | inactive: > 76.9 µM |
| COCCN(C(=O)c1csnn1)C(C(=O)NC1CCCCC1)c1cccs1 (stereo unspecified) | inactive: > 76.9 µM |
| CCOC(=O)c1c(NC(=O)CSc2nnc(Cc3csc(N)n3)n2C)sc(C)c1C | inactive: > 76.9 µM |
| c1csc(-c2csc3nc(CN4CCOCC4)nc(NCc4ccc5c(c4)OCO5)c23)c1 | inactive |
| CC(=O)Nc1ccc(N2CCN(Cc3ccccc3F)CC2)cc1 | inactive: > 76.9 µM |
| CCSCCNC(=O)c1cc(-n2cnnc2)ccc1Cl | inactive: > 76.9 µM |
| CCOc1ccc(-n2cnnn2)cc1S(=O)(=O)NCCc1ccc(OC)c(OC)c1 | inactive: > 76.9 µM |
| CCCn1c(=S)[nH]c2cc(C(=O)N3CCCC(C(=O)OCC)C3)ccc2c1=O (stereo unspecified) | inactive: > 76.9 µM |
| Cc1cc(C)nc(SCc2nnc(SCC(=O)Nc3ccc(C)c(C)c3)o2)n1 | inactive: > 76.9 µM |
| CNC(=O)CSc1nnnn1-c1ccc(C)cc1C | inactive: > 76.9 µM |
| CN1CCN(C(=O)c2ccc(C3SCC(=O)N3Cc3ccco3)cc2)CC1 (stereo unspecified) | inactive: > 76.9 µM |
| CCOC(=O)c1[nH]c(=O)[nH]c1CSc1ccccn1 | inactive: > 76.9 µM |
| CC(C)NC(=O)Cn1nnc(-c2cccc(NC(=O)c3ccccc3F)c2)n1 | inactive: > 76.9 µM |
| COCCNS(=O)(=O)c1ccc(-c2ccc(S(=O)(=O)NCCOC)cc2)cc1 | inactive: > 76.9 µM |
| O=C(CSc1nnc2ccccn12)N1CCc2ccccc2C1 | inactive: > 76.9 µM |
| CCC1Oc2ccc(C)cc2N(Cc2cccc(C)c2)C1=O (stereo unspecified) | inactive: > 76.9 µM |
| C/C(Cl)=C\Cn1c(N2CCCC2)nc2c1c(=O)[nH]c(=O)n2C | inactive: > 76.9 µM |
| CCOC(=O)C1CCN(C(=O)c2cccc(Cl)c2)CC1 | inactive: > 76.9 µM |
| COc1ccc(Cl)cc1S(=O)(=O)NCc1cccs1 | inactive: > 76.9 µM |
| Cc1ccc(C(C)C)c(OCC(=O)OCc2c(C)noc2C)c1 | inactive: > 76.9 µM |
| CC1=Nn2c(nnc2-c2cc(-c3ccccc3)n[nH]2)SC1 | inactive: > 76.9 µM |
| Cc1occc1-c1nnc(SCC(=O)N2CCOCC2)n1Cc1ccco1 | inactive: > 76.9 µM |
